# Laboratory results taken from the supplement of paper PMC8728848.
# The list shows a part of the results.
# B1: MIC1 (Toxoplasma gondii), O00834 (protein)
# chain: MGQALFLTVLLPVLFGVGPEAYGEASHSHSPASGRYIQQMLDQRCQEIAAELCQSGLRKMCVPSSRIVARNAVGITHQNTLQWRCFDTASLLESNQENNGVNCVDDCGHTIPCPGGVHRQNSNHATRHEILSKLVEEGVQRFCSPYQASANKYCNDKFPGTIARRSKGFGNNVEVAWRCYEKASLLYSVYAECASNCGTTWYCPGGRRGTSTELDKRHYTEEEGIRQAIGSVDSPCSEVEVCLPKDENPPLCLDESGQISRTGGGPPSQPPEMQQPADRSDERGGGKEQSPGGEAQPDHPTKGGNIDLPEKSTSPEKTPKTEIHGDSTKATLEEGQQLTLTFISTKLDVAVGSCHSLVANFLDGFLKFQTGSNSAFDVVEVEEPAGPAVLTIGLGHKGRLAVVLDYTRLNAALGSAAYVVEDSGCSSSEEVSFQGVGSGATLVVTTLGESPTAVSA
# Assays:
# Experiment in all cases: glycan array binding signal (z-score within array); higher = stronger binding
# Conditions in all cases: glycan notation: IUPAC condensed, linker removed
# [1] = target: Fuc(a1-2)Gal
# Procedure, shortened: (§1)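 Glycan array data were curated from 3228 arrays in the Consortium for Functional Glycomics database and kept only where the protein sequence was available. Glycan names were converted to IUPAC-condensed notation, and columns mapping to the same glycan were averaged. The binding signal is a within-array Z-score, averaged across arrays of the same protein sequence at different concentrations or buffers and across linkers. Negative Z-scores can be read as non-binding.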
# [2] = target: Fuc(a1-2)Gal(b1-3)GalNAc
# Procedure, shortened: as §1
# [3] = target: Fuc(a1-2)Gal(b1-3)GalNAc(b1-3)Gal
# Procedure, shortened: as §1
# [4] = target: Fuc(a1-2)Gal(b1-3)GalNAc(b1-3)Gal(a1-4)Gal(b1-4)Glc
# Procedure, shortened: as §1
# [5] = target: Fuc(a1-2)Gal(b1-3)GalNAc(b1-4)[Neu5Ac(a2-3)]Gal(b1-4)Glc
# Procedure, shortened: as §1
# [6] = target: Fuc(a1-2)Gal(b1-3)GlcNAc
# Procedure, shortened: as §1
# [7] = target: Fuc(a1-2)Gal(b1-3)GlcNAc(b1-3)Gal(b1-4)Glc
# Procedure, shortened: as §1
# [8] = target: Fuc(a1-2)Gal(b1-3)[Fuc(a1-4)]GlcNAc
# Procedure, shortened: as §1
# [9] = target: Fuc(a1-2)Gal(b1-4)Glc
# Procedure, shortened: as §1
# [10] = target: Fuc(a1-2)Gal(b1-4)Glc6S
# Procedure, shortened: as §1
# [11] = target: Fuc(a1-2)Gal(b1-4)GlcNAc
# Procedure, shortened: as §1
# [12] = target: Fuc(a1-2)Gal(b1-4)GlcNAc(b1-3)Gal(b1-4)GlcNAc
# Procedure, shortened: as §1
# [13] = target: Fuc(a1-2)Gal(b1-4)GlcNAc(b1-3)Gal(b1-4)GlcNAc(b1-3)Gal(b1-4)GlcNAc
# Procedure, shortened: as §1
# [14] = target: Fuc(a1-2)Gal(b1-4)GlcNAc6S
# Procedure, shortened: as §1
# [15] = target: Fuc(a1-2)Gal(b1-4)[Fuc(a1-3)]GlcNAc
# Procedure, shortened: as §1
# [16] = target: Fuc(a1-2)Gal(b1-4)[Fuc(a1-3)]GlcNAc(b1-3)Gal(b1-4)[Fuc(a1-3)]GlcNAc
# Procedure, shortened: as §1
# [17] = target: Fuc(a1-2)Gal(b1-4)[Fuc(a1-3)]GlcNAc(b1-3)Gal(b1-4)[Fuc(a1-3)]GlcNAc(b1-3)Gal(b1-4)[Fuc(a1-3)]GlcNAc
# Procedure, shortened: as §1
# [18] = target: Fuc(a1-2)Gal6S(b1-4)Glc
# Procedure, shortened: as §1
# [19] = target: Fuc(a1-2)Gal6S(b1-4)Glc6S
# Procedure, shortened: as §1
# [20] = target: Fuc(a1-2)Gal6S(b1-4)GlcNAc
# Procedure, shortened: as §1
# [21] = target: Fuc(a1-2)[Gal(a1-3)]Gal
# Procedure, shortened: as §1
# [22] = target: Fuc(a1-2)[Gal(a1-3)]Gal(b1-3)GlcNAc
# Procedure, shortened: as §1
# [23] = target: Fuc(a1-2)[Gal(a1-3)]Gal(b1-4)Glc
# Procedure, shortened: as §1
# [24] = target: Fuc(a1-2)[Gal(a1-3)]Gal(b1-4)GlcNAc
# Procedure, shortened: as §1
# [25] = target: Fuc(a1-2)[Gal(a1-3)]Gal(b1-4)[Fuc(a1-3)]GlcNAc
# Procedure, shortened: as §1
# [26] = target: Fuc(a1-2)[Gal(a1-4)]Gal(b1-4)GlcNAc
# Procedure, shortened: as §1
# [27] = target: Fuc(a1-2)[GalNAc(a1-3)]Gal
# Procedure, shortened: as §1
# [28] = target: Fuc(a1-2)[GalNAc(a1-3)]Gal(b1-3)GlcNAc
# Procedure, shortened: as §1
# [29] = target: Fuc(a1-2)[GalNAc(a1-3)]Gal(b1-4)Glc
# Procedure, shortened: as §1
# [30] = target: Fuc(a1-2)[GalNAc(a1-3)]Gal(b1-4)GlcNAc
# Procedure, shortened: as §1
# [31] = target: Fuc(a1-2)[GalNAc(a1-3)]Gal(b1-4)[Fuc(a1-3)]GlcNAc
# Procedure, shortened: as §1
# [32] = target: Fuc(a1-2)[GalNAc(a1-4)]Gal(b1-4)GlcNAc
# Procedure, shortened: as §1
# [33] = target: Fuc(a1-2)[GalNAc(b1-3)]Gal
# Procedure, shortened: as §1
# [34] = target: Fuc(a1-3)GlcNAc
# Procedure, shortened: as §1
# [35] = target: Fuc(a1-3)[Gal(b1-4)]Glc6S
# Procedure, shortened: as §1
# [36] = target: Fuc(a1-3)[Gal(b1-4)]GlcNAc
# Procedure, shortened: as §1
# [37] = target: Fuc(a1-3)[Gal(b1-4)]GlcNAc(b1-2)Man(a1-3)[Fuc(a1-3)[Gal(b1-4)]GlcNAc(b1-2)Man(a1-6)]Man(b1-4)GlcNAc(b1-4)GlcNAc
# Procedure, shortened: as §1
# [38] = target: Fuc(a1-3)[Gal(b1-4)]GlcNAc(b1-2)Man(a1-6)[Gal(b1-4)GlcNAc(b1-2)Man(a1-3)]Man(b1-4)GlcNAc(b1-4)GlcNAc
# Procedure, shortened: as §1
# [39] = target: Fuc(a1-3)[Gal(b1-4)]GlcNAc(b1-3)Gal(b1-3)[Fuc(a1-4)]GlcNAc
# Procedure, shortened: as §1
# [40] = target: Fuc(a1-3)[Gal(b1-4)]GlcNAc(b1-4)Gal(b1-4)[Fuc(a1-3)]GlcNAc
# Procedure, shortened: as §1
# [41] = target: Fuc(a1-3)[Gal(b1-4)]GlcNAc(b1-4)Gal(b1-4)[Fuc(a1-3)]GlcNAc(b1-4)Gal(b1-4)[Fuc(a1-3)]GlcNAc
# Procedure, shortened: as §1
# [42] = target: Fuc(a1-3)[Gal(b1-4)]GlcNAc6S
# Procedure, shortened: as §1
# [43] = target: Fuc(a1-3)[Gal3S(b1-4)]Glc6S
# Procedure, shortened: as §1
# [44] = target: Fuc(a1-3)[Gal3S(b1-4)]GlcNAc
# Procedure, shortened: as §1
# [45] = target: Fuc(a1-3)[Gal3S(b1-4)]GlcNAc6S
# Procedure, shortened: as §1
binder,measurement,setting,value
B1,glycan array binding signal (z-score),[1],0.021
same,glycan array binding signal (z-score),[2],-0.262
same,glycan array binding signal (z-score),[3],-0.131
same,glycan array binding signal (z-score),[4],-0.343
same,glycan array binding signal (z-score),[5],-0.232
same,glycan array binding signal (z-score),[6],-0.21
same,glycan array binding signal (z-score),[7],-0.18
same,glycan array binding signal (z-score),[8],-0.128
same,glycan array binding signal (z-score),[9],0.115
same,glycan array binding signal (z-score),[10],-0.003
same,glycan array binding signal (z-score),[11],-0.153
same,glycan array binding signal (z-score),[12],-0.354
same,glycan array binding signal (z-score),[13],-0.17
same,glycan array binding signal (z-score),[14],-0.252
same,glycan array binding signal (z-score),[15],-0.213
same,glycan array binding signal (z-score),[16],-0.138
same,glycan array binding signal (z-score),[17],-0.073
same,glycan array binding signal (z-score),[18],-0.192
same,glycan array binding signal (z-score),[19],-0.305
same,glycan array binding signal (z-score),[20],-0.293
same,glycan array binding signal (z-score),[21],-0.126
same,glycan array binding signal (z-score),[22],-0.156
same,glycan array binding signal (z-score),[23],-0.15
same,glycan array binding signal (z-score),[24],-0.245
same,glycan array binding signal (z-score),[25],-0.18
same,glycan array binding signal (z-score),[26],-0.163
same,glycan array binding signal (z-score),[27],0.038
same,glycan array binding signal (z-score),[28],-0.144
same,glycan array binding signal (z-score),[29],-0.164
same,glycan array binding signal (z-score),[30],-0.191
same,glycan array binding signal (z-score),[31],-0.217
same,glycan array binding signal (z-score),[32],-0.127
same,glycan array binding signal (z-score),[33],0.267
same,glycan array binding signal (z-score),[34],-0.037
same,glycan array binding signal (z-score),[35],-0.212
same,glycan array binding signal (z-score),[36],-0.257
same,glycan array binding signal (z-score),[37],-0.139
same,glycan array binding signal (z-score),[38],0.029
same,glycan array binding signal (z-score),[39],0.001
same,glycan array binding signal (z-score),[40],-0.213
same,glycan array binding signal (z-score),[41],-0.299
same,glycan array binding signal (z-score),[42],-0.221
same,glycan array binding signal (z-score),[43],-0.267
same,glycan array binding signal (z-score),[44],-0.041
same,glycan array binding signal (z-score),[45],-0.233
